Data reported in patent US20130184251A1, “HETEROAROMATIC AND AROMATIC PIPERAZINYL AZETIDINYL AMIDES AS MONOACYLGLYCEROL LIPASE INHIBITORS” (Janssen Pharmaceutica, NV, priority 2009, published 2013).

Columns and labels:
[1] = biological target: T1, purified mutant MGL (mut-MGLL 11-313 L179S L186S) (Homo sapiens, UniProt Q99685, L169S/L176S); assay: biochemical; conditions: Ex. 3 (mutant) IC50, mutant MGL (mut-MGLL 11-313 L179S L186S)
T1 sequence (Q99685 1-303 L169S/L176S): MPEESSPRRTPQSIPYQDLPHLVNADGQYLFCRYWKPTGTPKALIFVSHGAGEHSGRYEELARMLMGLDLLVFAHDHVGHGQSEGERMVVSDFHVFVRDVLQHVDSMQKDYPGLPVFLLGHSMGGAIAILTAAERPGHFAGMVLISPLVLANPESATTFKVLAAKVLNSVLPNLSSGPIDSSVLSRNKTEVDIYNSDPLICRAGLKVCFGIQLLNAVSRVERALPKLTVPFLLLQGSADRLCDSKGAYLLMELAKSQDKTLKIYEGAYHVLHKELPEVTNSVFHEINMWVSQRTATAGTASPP

[2] = biological target: T1, purified mutant MGL (mut-MGLL 11-313 L179S L186S); assay: biochemical; conditions: Ex. 4 Kd, ThermoFluor

SMILES | IC50 [1] [nM] | Kd [2] [nM]
O=C(c1ccc(Cc2ccccc2)cc1)N1CC(N2CCN(c3ncccc3I)CC2)C1 [compound 114, 1-{1-[(4-Benzylphenyl)carbonyl]azetidin-3-yl}-4-(3-iodopyridin-2-yl)piperazine] | 7980 | 10000
O=C(Cc1cccc(Oc2ccccc2)c1)N1CC(N2CCN(c3ccccn3)CC2)C1 [compound 109, 1-{1-[(3-Phenoxyphenyl)acetyl]azetidin-3-yl}-4-pyridin-2-ylpiperazine] | 13300 | 32300
C[C@@H](C(=O)N1CC(N2CCN(c3ccccn3)CC2)C1)c1ccc(-c2ccccc2)c(F)c1 [compound 126, 1-{1-[(2R)-2-(2-Fluorobiphenyl-4-yl)propanoyl]azetidin-3-yl}-4-pyridin-2-ylpiperazine] | 13200 | > 76700
O=C(c1ccc(C2CCCCC2)cc1)N1CC(N2CCN(c3ncccc3I)CC2)C1 [compound 98, 1-{1-[(4-Cyclohexylphenyl)carbonyl]azetidin-3-yl}-4-(3-iodopyridin-2-yl)piperazine] | 6030 | 5560
O=C(c1ccc(-c2ccccc2)cc1)N1CC(N2CCN(c3ccc(Br)cn3)CC2)C1 [compound 85, 1-[1-(Biphenyl-4-ylcarbonyl)azetidin-3-yl]-4-(5-bromopyridin-2-yl)piperazine] | 3450 | 4540
O=C(c1nc(-c2ccccc2)oc1C(F)(F)F)N1CC(N2CCN(c3ccccn3)CC2)C1 [compound 108, 1-(1-{[2-Phenyl-5-(trifluoromethyl)-1,3-oxazol-4-yl]carbonyl}azetidin-3-yl)-4-pyridin-2-ylpiperazine] | 13300 | 25000
O=C(c1ccc(-c2ccccc2)cc1)N1CC(N2CCN(c3ccccc3[N+](=O)[O-])CC2)C1 [compound 105, 1-[1-(Biphenyl-4-ylcarbonyl)azetidin-3-yl]-4-(2-nitrophenyl)piperazine] | 11400 | > 76700
O=C(/C=C/c1cccc(C(F)(F)F)c1)N1CC(N2CCN(c3ccccn3)CC2)C1 [compound 95, 1-Pyridin-2-yl-4-(1-{(2E)-3-[3-(trifluoromethyl)phenyl]prop-2-enoyl}azetidin-3-yl)piperazine] | 5450 | 4190
O=C(c1ccc(C2CCCCC2)cc1)N1CC(N2CCN(c3nc4ccccc4s3)CC2)C1 [compound 104, 2-(4-{1-[(4-Cyclohexylphenyl)carbonyl]azetidin-3-yl}piperazin-1-yl)-1,3-benzothiazole] | 10100 | 22200
O=C(c1ccc(C2CCCCC2)cc1)N1CC(N2CCN(c3ncccc3C(F)(F)F)CC2)C1 [compound 82, 1-{1-[(4-Cyclohexylphenyl)carbonyl]azetidin-3-yl}-4-[3-(trifluoromethyl)pyridin-2-yl]piperazine] | 2230 | 4550
O=C(c1cccc2c1Cc1ccccc1-2)N1CC(N2CCN(c3ccccn3)CC2)C1 [compound 96, 1-[1-(9H-Fluoren-1-ylcarbonyl)azetidin-3-yl]-4-pyridin-2-ylpiperazine] | 5600 | 15200
O=C(c1cnn(-c2ccccc2)c1)N1CC(N2CCN(c3ccccn3)CC2)C1 [compound 107, 1-{1-[(1-Phenyl-1H-pyrazol-4-yl)carbonyl]azetidin-3-yl}-4-pyridin-2-ylpiperazine] | 12800 | 11400
O=C(c1ccc(-c2ccccc2)cc1)N1CC(N2CCN(c3nc4ccccc4s3)CC2)C1 [compound 106, 2-(4-[1-(Biphenyl-4-ylcarbonyl)azetidin-3-yl]piperazin-1-yl}-1,3-benzothiazole] | 12500 | 12500
O=C(c1ccc(OCc2ccccc2)cc1)N1CC(N2CCN(c3ncccc3I)CC2)C1 [compound 118, 1-(1-{[4-(Benzyloxy)phenyl]carbonyl}azetidin-3-yl)-4-(3-iodopyridin-2-yl)piperazine] | 2330 | > 76700
O=C(C(Cc1ccccc1)c1ccccc1)N1CC(N2CCN(c3ccccn3)CC2)C1 (centres unmarked) [compound 103, 1-[1-(2,3-Diphenylpropanoyl)azetidin-3-yl]-4-pyridin-2-ylpiperazine] | 9430 | 45600
O=C(c1ccc(-c2ccccc2)cc1)N1CC(N2CCN(c3nc4ccccc4o3)CC2)C1 [compound 90, 2-(4-[1-(Biphenyl-4-ylcarbonyl)azetidin-3-yl]piperazin-1-yl}-1,3-benzoxazole] | 4580 | 769
O=C(c1ccc(N2C(=O)c3ccccc3C2=O)cc1)N1CC(N2CCN(c3ccccn3)CC2)C1 [compound 76, 2-(4-{[3-(4-Pyridin-2-ylpiperazin-1-yl)azetidin-1-yl]carbonyl}phenyl)-1H-isoindole-1,3(2H)-dione] | 1360 | 3850
O=C(c1ccc(C#Cc2ccccc2)o1)N1CC(N2CCN(c3ccccn3)CC2)C1 [compound 123, 1-(1-{[5-(Phenylethynyl)furan-2-yl]carbonyl}azetidin-3-yl)-4-pyridin-2-ylpiperazine] | 3460 | 3230

Now those with a lower IC50 [1], led by results:

IC50 [1] [nM] | Kd [2] [nM] | SMILES
1230 | 6050 | O=C(c1ccc2c(c1)CCCN2c1ccccc1)N1CC(N2CCN(c3ccccc3)CC2)C1 [compound 132, 1-Phenyl-6-{[3-(4-phenylpiperazin-1-yl)azetidin-1-yl]carbonyl}-1,2,3,4-tetrahydroquinoline]
152 | 454 | O=C(c1ccc(-n2cccn2)cc1)N1CC(N2CCN(c3ncccn3)CC2)C1 [compound 46, 2-[4-(1-{[4-(1H-Pyrazol-1-yl)phenyl]carbonyl}azetidin-3-yl)piperazin-1-yl]pyrimidine]
21 | 38 | CN(c1ccccc1)c1ccc(C(=O)N2CC(N3CCN(c4ccccn4)CC3)C2)cc1 [compound 18, N-Methyl-N-phenyl-4-{[3-(4-pyridin-2-ylpiperazin-1-yl)azetidin-1-yl]carbonyl}aniline]
1000 | 1780 | O=C(/C=C/c1ccc(-c2ccccc2)cc1)N1CC(N2CCN(c3ccccn3)CC2)C1 [compound 73, 1-{1-[(2E)-3-Biphenyl-4-ylprop-2-enoyl]azetidin-3-yl}-4-pyridin-2-ylpiperazine]
< 13 | 10 | O=C(c1ccc(C2CCCCC2)cc1)N1CC(N2CCN(c3ncccn3)CC2)C1 [Compound #13, 2-(4-{1-[(4-Cyclohexylphenyl)carbonyl]azetidin-3-yl}piperazin-1-yl)pyrimidine]
30 | 42 | O=C(c1ccc(Cc2ccccc2)cc1)N1CC(N2CCN(c3ncccn3)CC2)C1 [compound 24, 2-(4-{1-[(4-Benzylphenyl)carbonyl]azetidin-3-yl}piperazin-1-yl)pyrimidine]
32 | 51 | O=C(c1ccc(-c2ccccc2)c(F)c1)N1CC(N2CCN(c3ncccn3)CC2)C1 [compound 26, 2-(4-{1-[(2-Fluorobiphenyl-4-yl)carbonyl]azetidin-3-yl}piperazin-1-yl)pyrimidine]
19 | 7 | Cc1nc2cc(C(=O)N3CC(N4CCN(c5ncccn5)CC4)C3)ccc2n1C1CCCCC1 [compound 17, 1-Cyclohexyl-2-methyl-5-{[3-(4-pyrimidin-2-ylpiperazin-1-yl)azetidin-1-yl]carbonyl}-1H-benzimidazole]
22 | 18 | O=C(c1ccc(-c2ccc(I)cc2)cc1)N1CC(N2CCN(c3ncccn3)CC2)C1 [compound 19, 2-(4-{1-[(4′-Iodobiphenyl-4-yl)carbonyl]azetidin-3-yl}piperazin-1-yl)pyrimidine]
547 | 769 | O=C(CCc1cccc(I)c1)N1CC(N2CCN(c3ncccn3)CC2)C1 [compound 64, 2-(4-{1-[3-(3-Iodophenyl)propanoyl]azetidin-3-yl}piperazin-1-yl)pyrimidine]
16 | 12 | Cc1nc2cc(C(=O)N3CC(N4CCN(c5ncccn5)CC4)C3)ccc2n1-c1ccccc1 [compound 14, 2-Methyl-1-phenyl-5-{[3-(4-pyrimidin-2-ylpiperazin-1-yl)azetidin-1-yl]carbonyl}-1H-benzimidazole]
55 | 373 | CCCCc1ccc(C(=O)N2CC(N3CCN(c4ccccn4)CC3)C2)cc1 [compound 35, 1-{1-[(4-Butylphenyl)carbonyl]azetidin-3-yl}-4-pyridin-2-ylpiperazine]
239 | 333 | O=C(c1ccc(I)cc1)N1CC(N2CCN(c3ncccn3)CC2)C1 [compound 53, 2-(4-{1-[(4-Iodophenyl)carbonyl]azetidin-3-yl}piperazin-1-yl)pyrimidine]
844 | 15200 | O=C(c1ccc2c(c1)CCCN2)N1CC(N2CCN(c3ccc(C(F)(F)F)cc3)CC2)C1 [compound 133, 6-[(3-{4-[4-(Trifluoromethyl)phenyl]piperazin-1-yl}azetidin-1-yl)carbonyl]-1,2,3,4-tetrahydroquinoline]
131 | 413 | CC(C)(C)OC(=O)N1CCC(c2ccc(C(=O)N3CC(N4CCN(c5ccccn5)CC4)C3)cc2)CC1 [compound 122, tert-Butyl 4-(4-{[3-(4-pyridin-2-ylpiperazin-1-yl)azetidin-1-yl]carbonyl}phenyl)piperidine-1-carboxylate]
400 | 2300 | O=C1c2ccccc2-c2ccc(C(=O)N3CC(N4CCN(c5ccccn5)CC4)C3)cc21 [compound 59, 2-{[3-(4-Pyridin-2-ylpiperazin-1-yl)azetidin-1-yl]carbonyl}-9H-fluoren-9-one]
